Our source for the TGI and GI50 values is PubChem BioAssay (NCI).

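Five compound concentrations were applied to cells in 96-well plates for 48 hours; endpoints were derived by simple linear interpolation of the resulting dose-response curve. GI50 marks 50% less growth. TGI: total growth inhibition.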 Bridge positions count the residues as written; N and C are the ends. Peptide text beside a SMILES is read from it. * marks the point of attachment. Cbz = O=C(OCc1ccccc1)*

The experiment deals with NCI-H322M lung. Nature of the experiment: NCI tumour cell line growth inhibition, 48 h.
For the compound `COC(=O)/C(=C\c1ccco1)P(=O)(OC)OC`, the TGI is more than 100 µM.

Regarding `CCCCc1c2c(nc3c1CCc1cc4cc5c(nc4nc1-3)-c1nc3c(c(CCCC)c1CC5)CCC/C3=C\c1ccccc1)/C(=C/c1ccccc1)CCC2`, the TGI was more than 100 µM.

With `Nc1ccc(C(=O)NN2C(=O)C(Cl)C2c2cccc(O)c2)cc1` (stereo unspecified), the TGI is 29.7 µM.

Take `CCOC1OC(=O)[C@H]2[C@@H]1[C@@H]1CC[C@H]2O1` (stereo partly specified): the GI50 is more than 100 µM and the TGI is more than 100 µM.

As to `O=S(=O)(O)c1cc(O)c2c(O)c(N=Nc3cccc4ccccc34)c(S(=O)(=O)O)cc2c1`, the TGI is more than 100 µM.

Regarding `NNc1c2ccccc2nc2ccccc12`, the GI50 was 7.32 µM and the TGI came to 36.5 µM.

In the case of `O=C1c2ccccc2C(=O)N1C1(C(=O)NC2(C(=O)O)CCCC2)CCCC1`, the TGI was more than 100 µM.

Regarding `C[C@H]1c2ccccc2CN1CCCOc1cc2c(cc1OCC1CC1)C1(CCCC1)C(N)=N2`, the GI50 is 2.2 µM and the TGI worked out at 7.9 µM.

Take `Oc1ccc(Cl)cc1C1=N/C(=N\C/N=C2\N=C(c3cc(Cl)ccc3O)CC(c3ccccc3)N2)NC(c2ccccc2)C1` (stereo unspecified): the TGI is more than 100 µM.

`COc1ccc2c(c1)C(=O)c1c-2n(CCCN)c(=O)c2cc([N+](=O)[O-])ccc12`: the GI50 was 1.88 µM and the TGI amounted to 6.18 µM.

Compound `O/N=C1/C2CC3CC1(c1ccccc1)CC(/C3=N/O)/C2=N\O` (stereo unspecified) displayed a TGI of more than 100 µM.

On to `O=C(NCC(=O)N1CCOC1=O)OCc1ccccc1`, for which the TGI is more than 100 µM.

Take `CC(=O)OC(C)C(OC(C)=O)C(OC(C)=O)C(/C=C/C1CC=CC(=O)O1)OC(C)=O` (stereo unspecified): the GI50 is 53.4 µM and the TGI was more than 100 µM.

With `COC(=O)C1CCCCNC(=O)CCC(NC(=O)OCc2ccccc2)C(=O)N1` (stereo not drawn) (Cbz-Glu-Lys-OMe; lactam 1-2; configuration not given here), the TGI is more than 100 µM.

Consider `O=C1NC2CCCCC2N=C1/C(C(=O)c1ccccc1)=C(\O)c1ccccc1` (stereo unspecified), for which the TGI was more than 100 µM.

Consider `CCCCCCCCCCCCCP(=O)(NCC(N)=O)OCC` (stereo unspecified), for which the TGI turned out to be 33.6 µM.

Take `S=C(N/N=C\c1ccccn1)N(Cc1ccccn1)Cc1ccccn1`: the TGI is 19.3 µM.

In the case of `COc1ccc(Cc2nc3ccccc3s2)cc1OC`, the TGI was 87.1 µM.

`COP(=O)(OC)C(NC=O)P(=O)(OC)OC` came in with a TGI of more than 100 µM.

For the compound `O=C1CCC(N2C(=O)c3cccc(NCCCC4CCN(CCNC(=O)c5cc6c(o5)C(=O)c5ccccc5C6=O)CC4)c3C2=O)C(=O)N1` (stereo unspecified), the GI50 is 0.439 µM and the TGI is 0.868 µM.
